Data taken from publication PMC5474753 (Journal of molecular biology, 2016).

Target: the molecule itself
Test: FRET or BRET

B1: full-length FGFR2 C342R mutant (receptor)
chain: not shown
- stoichiometry N: 2
